Reference: PubChem BioAssay AID330 (DTP/NCI, 2004)
Several values for one entry are separate records, joined by “and”; a condition that tells them apart may be missing. Equal values may be shown once. Further values from the same series stand in other lists. Inconclusive results and toxic doses are left out.

Tested on: P388 leukemia ip, CD2F1 mice, survival T/C
Experiment: NCI In Vivo Anticancer Drug Screen. Data for tumor model P388 Leukemia (intraperitoneal) in CD2F1 (CDF1) mice
Settings: endpoint: median survival time, higher = longer survival
Protocol: The antitumor activity of compounds was measured in mice bearing transplantable tumors. Survival or tumor size were measured and the results are expressed as the measurement made in the treated group (T) divided by the measurement made in the vehicle treated control group (C). The tumor model used in this assay is P388 Leukemia (intraperitoneal) in CD2F1 (CDF1) mice

COc1cccc2c1C(=O)c1c(O)c3c(c(O)c1C2=O)C[C@@](O)(C(=O)CO)C[C@@H]3OC1CC(N)C(O)C(C)O1 (some centres not stated)
T/C (dose: 0.1 mg/kg/injection, schedule: Q01DX009 (ip), vehicle: water): 185 % of control | T/C (dose: 0.1 mg/kg/injection, schedule: Q04DX003 (ip), vehicle: saline): 101 % of control | T/C (dose: 0.12 mg/kg/injection, schedule: Q01DX009 (ip), vehicle: water): 180 % of control | T/C (dose: 0.2 mg/kg/injection, schedule: Q01DX009 (ip), vehicle: water): 182 % of control | T/C (dose: 0.23 mg/kg/injection, schedule: Q01DX009 (ip), vehicle: saline): 168 % of control | T/C (dose: 0.3 mg/kg/injection, schedule: Q04DX003 (ip), vehicle: saline): 104 % of control | T/C (dose: 0.38 mg/kg/injection, schedule: Q01DX009 (ip), vehicle: saline): 171 % of control | T/C (dose: 0.39 mg/kg/injection, schedule: Q01DX009 (ip), vehicle: water): 204 % of control | T/C (dose: 0.4 mg/kg/injection, schedule: Q01DX009 (ip), vehicle: water): 180 % of control | T/C (dose: 0.43 mg/kg/injection, schedule: Q01DX009 (ip), vehicle: saline): 172 % of control and 166 % of control | T/C (dose: 0.44 mg/kg/injection, schedule: Q04DX003 (ip), vehicle: water): 165 % of control | T/C (dose: 0.5 mg/kg/injection, schedule: Q01DX005 (ip), vehicle: water): 164 % of control and 166 % of control and 181 % of control | T/C (dose: 0.5 mg/kg/injection, schedule: Q04DX003 (ip), vehicle: saline): 110 % of control | T/C (dose: 0.52 mg/kg/injection, schedule: Q01DX009 (ip), vehicle: saline): 202 % of control | T/C (dose: 0.63 mg/kg/injection, schedule: Q04DX003 (ip), vehicle: water): 108 % of control and 113 % of control | T/C (dose: 0.66 mg/kg/injection, schedule: Q04DX003 (ip), vehicle: saline): 172 % of control | T/C (dose: 0.66 mg/kg/injection, schedule: Q04DX003 (ip), vehicle: water): 182 % of control | T/C (dose: 0.72 mg/kg/injection, schedule: Q01DX009 (ip), vehicle: saline): 169 % of control and 191 % of control | T/C (dose: 0.75 mg/kg/injection, schedule: Q01DX009 (ip), vehicle: saline): 205 % of control | T/C (dose: 0.78 mg/kg/injection, schedule: Q01DX009 (ip), vehicle: water): 201 % of control | T/C (dose: 0.8 mg/kg/injection, schedule: Q01DX009 (ip), vehicle: water): 162 % of control | T/C (dose: 0.8 mg/kg/injection, schedule: Q04DX003 (ip), vehicle: saline): 164 % of control | T/C (dose: 0.86 mg/kg/injection, schedule: Q01DX009 (ip), vehicle: saline): 209 % of control | T/C (dose: 1.0 mg/kg/injection, schedule: Q01DX005 (ip), vehicle: water): 188 % of control and 194 % of control (2×) | T/C (dose: 1.0 mg/kg/injection, schedule: Q02DX002 (ip), vehicle: saline): 170 % of control | T/C (dose: 1.0 mg/kg/injection, schedule: Q04DX003 (ip), vehicle: saline): 110 % of control | T/C (dose: 1.12 mg/kg/injection, schedule: Q04DX002 (ip), vehicle: saline): 176 % of control | T/C (dose: 1.2 mg/kg/injection, schedule: Q01DX009 (ip), vehicle: saline): 178 % of control and 248 % of control | T/C (dose: 1.25 mg/kg/injection, schedule: Q01DX001 (ip), vehicle: water): 180 % of control | T/C (dose: 1.25 mg/kg/injection, schedule: Q04DX003 (ip), vehicle: saline): 190 % of control | T/C (dose: 1.25 mg/kg/injection, schedule: Q04DX003 (ip), vehicle: water): 119 % of control and 123 % of control | T/C (dose: 1.3 mg/kg/injection, schedule: Q01DX001 (ip), vehicle: water): 174 % of control | T/C (dose: 1.3 mg/kg/injection, schedule: Q01DX004 (ip), vehicle: saline): 173 % of control | T/C (dose: 1.44 mg/kg/injection, schedule: Q01DX009 (ip), vehicle: saline): 248 % of control | T/C (dose: 1.5 mg/kg/injection, schedule: Q01DX009 (ip), vehicle: saline): 320 % of control | T/C (dose: 1.56 mg/kg/injection, schedule: Q01DX009 (ip), vehicle: water): 103 % of control | T/C (dose: 1.57 mg/kg/injection, schedule: Q01DX009 (ip), vehicle: water): 242 % of control | T/C (dose: 1.6 mg/kg/injection, schedule: Q01DX004 (ip), vehicle: saline): 205 % of control | T/C (dose: 1.6 mg/kg/injection, schedule: Q01DX009 (ip), vehicle: water): 225 % of control | T/C (dose: 1.6 mg/kg/injection, schedule: Q04DX003 (ip), vehicle: saline): 199 % of control | T/C (dose: 1.6 mg/kg/injection, schedule: Q04DX003 (ip), vehicle: water): 167 % of control | T/C (dose: 1.62 mg/kg/injection, schedule: Q04DX002 (ip), vehicle: saline): 169 % of control and 189 % of control | T/C (dose: 1.62 mg/kg/injection, schedule: Q04DX003 (ip), vehicle: water): 177 % of control | T/C (dose: 1.73 mg/kg/injection, schedule: Q04DX002 (ip), vehicle: saline): 176 % of control and 178 % of control | T/C (dose: 1.8 mg/kg/injection, schedule: Q01DX001 (ip), vehicle: water): 174 % of control and 167 % of control | T/C (dose: 1.8 mg/kg/injection, schedule: Q04DX003 (ip), vehicle: saline): 190 % of control | T/C (dose: 2.0 mg/kg/injection, schedule: Q01DX005 (ip), vehicle: saline): 169 % of control | T/C (dose: 2.0 mg/kg/injection, schedule: Q01DX005 (ip), vehicle: water): 174 % of control and 221 % of control and 232 % of control | T/C (dose: 2.0 mg/kg/injection, schedule: Q01DX009 (ip), vehicle: saline): 192 % of control | T/C (dose: 2.0 mg/kg/injection, schedule: Q02DX002 (ip), vehicle: saline): 188 % of control | T/C (dose: 2.0 mg/kg/injection, schedule: Q04DX003 (ip), vehicle: saline): 115 % of control | T/C (dose: 2.1 mg/kg/injection, schedule: Q01DX004 (ip), vehicle: saline): 196 % of control | T/C (dose: 2.16 mg/kg/injection, schedule: Q04DX002 (ip), vehicle: saline): 175 % of control | T/C (dose: 2.16 mg/kg/injection, schedule: Q04DX002 (ip), vehicle: water): 184 % of control | T/C (dose: 2.25 mg/kg/injection, schedule: Q04DX003 (ip), vehicle: saline): 174 % of control | T/C (dose: 2.4 mg/kg/injection, schedule: Q01DX001 (ip), vehicle: water): 174 % of control and 201 % of control | T/C (dose: 2.4 mg/kg/injection, schedule: Q01DX009 (ip), vehicle: saline): 252 % of control | T/C (dose: 2.4 mg/kg/injection, schedule: Q04DX003 (ip), vehicle: saline): 186 % of control | T/C (dose: 2.4 mg/kg/injection, schedule: Q04DX003 (ip), vehicle: water): 191 % of control | T/C (dose: 2.5 mg/kg/injection, schedule: Q01DX001 (ip), vehicle: water): 160 % of control | T/C (dose: 2.5 mg/kg/injection, schedule: Q04DX003 (ip), vehicle: saline): 192 % of control | T/C (dose: 2.5 mg/kg/injection, schedule: Q04DX003 (ip), vehicle: water): 122 % of control | T/C (dose: 2.59 mg/kg/injection, schedule: Q01DX001 (ip), vehicle: saline): 178 % of control | T/C (dose: 2.6 mg/kg/injection, schedule: Q01DX004 (ip), vehicle: saline): 164 % of control and 198 % of control | T/C (dose: 2.7 mg/kg/injection, schedule: Q04DX002 (ip), vehicle: saline): 176 % of control and 179 % of control and 196 % of control | T/C (dose: 2.7 mg/kg/injection, schedule: Q04DX003 (ip), vehicle: water): 210 % of control | T/C (dose: 2.88 mg/kg/injection, schedule: Q04DX002 (ip), vehicle: saline): 181 % of control and 195 % of control
